Data published in patent US9797889B2, “Activation of bioluminescence by structural complementation” (Promega Corporation, priority 2013, dated 2017).

Target: 5A2+R11E (Oplophorus gracilirostris, UniProt Q9GV45, A31E/A60N/A81I/F95D/G42A/G62A/G78A/G94A/G98A/I117V/K70R/L54V/L99Q/M102K/P142E/Q151K/Q38E/Q45L/V71I/Y165I)
Conditions: 5A2+R11E lysate 1:10; NLpep containing E as the 9th residue

5A2+R11E, sequence (Q9GV45 other isoform, or with tags, fused parts or gaps with the stated changes): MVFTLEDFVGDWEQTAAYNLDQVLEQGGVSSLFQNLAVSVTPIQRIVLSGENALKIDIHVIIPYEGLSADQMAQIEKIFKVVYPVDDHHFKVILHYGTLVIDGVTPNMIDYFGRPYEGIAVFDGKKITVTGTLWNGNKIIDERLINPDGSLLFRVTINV

| Sequence | luminescence of NLpep with NLpoly mutation R11E |
| --- | --- |
| NVTGWRLFERISN [NLpep72] | lower luminescence |
| NVTGWRLFEKISN [NLpep75] | lower luminescence |
